Measurements: ChEMBL document CHEMBL4888484, “Replenishing the malaria drug discovery pipeline: Screening and hit evaluation of the MMV Hit Generation Library 1 (HGL1) against asexual blood stage Plasmodium falciparum ,using a nano luciferase reporter read-out” (2022)
Screen size: about 150,000 compounds; about 540 (0.36%) showed an effect of 50% or more. Some of the results follow.

What follows are compounds tested on Plasmodium falciparum (assay: Primary screen in NF54 nanoGlo assay, in single point, at 2uM, 72h; a lower Z score goes with more inhibition). Settings: timepoint 72 hour.
Assay type: functional, Erythrocyte

| SMILES | % Inhibition | Z score |
| --- | --- | --- |
| O=S(=O)(Cc1ccon1)N1CCC[C@H](n2cnc3ccccc32)C1 | -13% | 2.06 |
| CN(CCCNc1ccccc1)C(=O)NCc1cccnc1 | -2% | 0.21 |
| Cc1c(C(=O)N2C[C@@H]3CC[C@H]2CN(Cc2cscn2)C3)cnc2ccnn12 | -18% | 2.27 |
| C[C@H]1CN(Cc2ccccc2OCCN2CCOCC2)CC[C@]1(O)C1CC1 | -13% | 2.01 |
| CNC(=O)Cn1ccn(-c2cccc(Cl)c2)c1=O | -9% | 1.61 |
| Cc1ccc(CNc2ncccc2C#N)c(O[C@H]2CCOC2)c1 | -9% | 0.95 |
| COc1ccc(Cl)cc1NC(=O)CN1CCC[C@H]1c1ccncc1 | -8% | 1.17 |
| Oc1nc(N2CCOC3(CCCC3)C2)ncc1F | 55% | -9.19 |
| COc1ccc(CNC(=O)N2CCCC(C3CCCCN3)C2)cc1OC(F)F (centres undefined) | 3% | -0.31 |
| O=C(Cn1c(=O)n(Cc2ccco2)c(=O)c2ccccc21)Nc1ccc(F)cc1F | -5% | 0.77 |
| COc1ccc(N2CCCN(Cc3cccc(Cl)c3)C2=O)c(NC(=O)c2cccc(C)c2)c1 | -3% | 0.51 |
| O=C(Nc1c(F)c(F)c(F)c(F)c1F)[C@H]1C[C@H]2CCCN2[C@@]12C(=O)Nc1ccccc12 | -11% | 1.1 |
| COc1ccc(Cc2n[nH]c(CC[C@H](C)N3CCOCC3)n2)cc1 | -10% | 1.14 |
| O=C(O)[C@H]1CCCN1Cc1nn(-c2ccc(F)cc2)c2c1CCC2 | -1% | 0.16 |
| Cc1ccc(Cl)c(OCCNCCO)c1 | -5% | 0.62 |
| Cc1ccc(-c2cc3c(N4CCC[C@H](C(=O)NCc5cc(F)cc(F)c5)C4)nccn3n2)c(C)c1 | -4% | 0.53 |
| CN(CCNc1cnc(C#N)cn1)c1cnc(C#N)cn1 | 3% | -0.27 |
| CC1(C)C[C@@H](c2nccn2Cc2cccc(C(=O)O)c2)CCO1 | 16% | -2.22 |
| COc1ccc(-c2nc3ccc(C(=O)NCCc4ccccc4)cc3nc2-c2ccc(OC)cc2)cc1 | -6% | 1.15 |
| CN(C)c1ccc(-c2noc(CCNC(=O)c3ccccc3Cl)n2)cc1 | -4% | 0.54 |
| COCCCNC(=O)C1CN(S(=O)(=O)c2ccc(Cl)cc2)CC1c1cccc(C(F)(F)F)c1 (centres undefined) | -1% | 0.12 |

| SMILES | % Inhibition | Z score |
| --- | --- | --- |
| CCCS(=O)(=O)N1CC(Oc2ccc(C)cc2)C1 | -9% | 1.24 |
| Cc1ncsc1NC(=O)C1OCC(=O)N(C)C1c1ccccc1 (centres undefined) | -8% | 1.16 |
| COc1ccc(N2C(=O)[C@H](CC(=O)NCc3cc(Cl)cc4c3OCOC4)N=C2O)cc1 | 1% | -0.15 |
| O=C(c1ccccc1-n1cnnn1)N1CCC[C@H](N2CCCCC2)C1 | 5% | -0.96 |
| CC(C)NC(=O)c1ccnc(N2CC[C@@]3(O)CCN(C(=O)N(C)C)C[C@H]3C2)c1 | -8% | 1.5 |
| O=C(c1ccc2c(c1)C(=O)N(c1ccccc1-c1ccccc1)C2=O)c1ccc2c(c1)C(=O)N(c1ccccc1-c1ccccc1)C2=O | -8% | 1.58 |
| CCN1CCOC[C@H]1C(=O)NCC1(Cc2ccccc2)CCC1 | -4% | 0.51 |
| O=C(CN(C[C@H]1CCCO1)C(=O)c1ccoc1)N1CCCC1 | 1% | -0.06 |
| N[C@H]1CCc2nc(-c3ccccc3)cn2C1 | -13% | 1.65 |
| CCc1nnc2n1CCN(Cc1ccc(-n3cccn3)cc1)C2 | -6% | 0.96 |
| Cn1c(=O)c2c(ncn2CC(=O)N2CCC[C@H]2c2ccc3c(c2)OCCCO3)n(C)c1=O | -6% | 0.79 |
| Cn1c(=O)[nH]cc(CC(=O)N2CCC[C@H](Nc3ccc(F)c(F)c3)C2)c1=O | -5% | 0.6 |
| O=C1C[C@@H]2O[C@H](CN(Cc3ccc(F)c(F)c3)C[C@@H]3CN(CCO3)C(=O)[C@@H]3C[C@@H](CN3CC3CC3)N1)[C@@H](O)[C@H]2O | 27% | -3.01 |
| C[C@@H](C1CCN(c2cc(N(C)C)ncn2)CC1)N1CCCC1 | 7% | -1.08 |
| Cc1cc(C)c(NS(=O)(=O)c2cc(-c3ccc(=O)[nH]n3)ccc2C)c(C)c1 | -1% | 0.24 |
| c1ccc(-c2csc(C3CCC3)n2)nc1 | -3% | 0.35 |
| O=C(c1ccc(Br)cc1)N1CCC(c2ccn3ncc(C(=O)N4CCCC4)c3c2)CC1 | -3% | 0.31 |
| O=C(Nc1ccc2cc[nH]c2c1)c1cc(=O)[nH]c2ccccc12 | 1% | -0.13 |
| COc1ccc(C(=O)NC[C@@H](c2ccc(C)cc2)N2CCCCC2)cc1Cl | -17% | 3.35 |
| CCC(CC)(CC)S(=O)(=O)Cc1cc(C)no1 | -5% | 0.69 |
| NC(=O)c1cnc(-c2ccc(F)cc2)n(CC(=O)Nc2ccc(Cl)cc2)c1=O | -16% | 2.5 |

| SMILES | % Inhibition | Z score |
| --- | --- | --- |
| Cc1cc(Br)ccc1CC(=O)N1CCCS1(=O)=O | 3% | -0.29 |
| O=S(=O)(NCC1CC1)c1cccnc1N1CC2CC2(CO)C1 (centres undefined) | 3% | -0.38 |
| CCc1cc(-c2n[nH]c(C)c2-c2ccc3c(c2)OCCO3)c(O)cc1OCc1cccc(OC)c1 | -7% | 0.89 |
| CN(C(=O)[C@H]1CCc2nnnn2CC1)c1cnn(C)c1 | 10% | -1.31 |
| CS(=O)(=O)N(Cc1ccccn1)C1CN(C(=O)NCc2ccccc2)C1 | 8% | -1.61 |
| COc1ccc(C(=O)N2CCN(C(=O)c3cccnc3)[C@@H](C(=O)N[C@H]3CCCNC3=O)C2)cc1 | -7% | 1.08 |
| CC(NC(=O)C1CCCCN1)c1cc(F)c(F)c(F)c1 (centres undefined) | 3% | -0.47 |
| O=S(=O)(c1ccc(Cl)cc1)N(c1ccccc1)C1CCN(Cc2c(F)cccc2F)CC1 | 7% | -0.87 |
| C[C@H](Nc1ccc(Cl)cc1Cl)C(=O)NCCC(=O)N(C)C | -16% | 2.32 |
| CCN(C(=O)N(C)C)c1ccccc1C | -6% | 1.15 |
| CCCNC(=O)CNc1ncc(S(=O)(=O)NCCO)cc1C(F)(F)F | -11% | 2.14 |
| Cc1nccn1CC(=O)NCC1CCN(C(=O)c2ccc3scnc3c2)CC1 | -7% | 1.03 |
| C[C@@H](C(=O)NCCc1ncc[nH]1)n1cccn1 | 1% | -0.13 |
| CCCc1cnc(C)nc1NCc1csc(N)n1 | -2% | 0.25 |
| CCN1CCN(Cc2nc3cc(NC(=O)c4ccccc4Cl)ccc3n2C(C)C)CC1 | 7% | -0.57 |
| COc1ccc(S(=O)(=O)Oc2ccccc2CN(CC2CC2)C(=O)NC(C)(C)C)cc1 | -3% | 0.31 |
| CCOC1CC(NC(C)c2cccnc2)C1Oc1ccccc1 (centres undefined) | -13% | 1.68 |
| COc1ccc(OC)c(NC(=O)CN2CCC3(CC2)N=C(c2ccc(C)c(C)c2)C(=O)N3)c1 | 1% | -0.18 |
| CN(C)CC(C)(C)CNC(=O)c1cnn(-c2nccc(-c3ccccc3F)n2)c1C1CC1 | -12% | 1.57 |
| Cn1cc(CNc2ccc(F)cc2F)nn1 | -10% | 1.53 |
| Cc1ccc(C#N)c(-c2cccc(-c3ccn(Cc4ccncc4)n3)c2)n1 | -10% | 1.46 |

| SMILES | % Inhibition | Z score |
| --- | --- | --- |
| CN(C)C(=O)N1CCCC[C@H]1c1nnc2n1CCN(C(=O)c1ccccn1)C2 | 1% | -0.12 |
| COCc1nc(CN2CCS(=O)(=O)C[C@@H]2C)cs1 | 4% | -0.52 |
| CNc1nc(NCc2ccccc2)nc2ccccc12 | 81% | -8.4 |
| CCOC(=O)c1cnn2cc(CNc3cc(CC)nn3C)cnc12 | -5% | 0.77 |
| O=c1ccc(N2CCN(S(=O)(=O)c3ccc4c(c3)CCCC4)CC2)nn1-c1ccc(Cl)cc1 | 13% | -1.56 |
| O=c1ccccn1Cc1cc(Cl)c2c(c1)OCCO2 | -11% | 1.67 |
| Cc1nn(C)c(C)c1-c1cc(C(C)(C)C)nc(NC2CC2)n1 | -12% | 1.49 |
| O=C(Nc1cc(C2CCCC2)[nH]n1)[C@@H]1C[C@H]2CC[C@@H]1O2 | -14% | 1.82 |
| C[C@@H]1CN(c2nccs2)CC[C@@]1(O)C1CCOCC1 | -15% | 2.96 |
| Cc1ccccc1NC(=O)c1cn(CCNCc2ccc3c(c2)OCO3)nn1 | -19% | 1.7 |
| Cc1cc(COC(=O)c2cc(Cl)c[nH]2)no1 | -2% | 0.33 |
| CCc1nn(C)c(OC)c1CN[C@H]1CCN(c2ccc(C)cc2)C1 | -6% | 0.62 |
| Cc1cccc(C)c1CNc1ccn(CC(=O)N2CCN(C)CC2)n1 | -13% | 1.21 |
| O=C(CCS(=O)(=O)Cc1noc(-c2cccs2)n1)NCc1ccccc1Cl | 33% | -3.73 |
| CS(=O)(=O)N(CC(=O)NCc1ccc2c(c1)OCO2)c1ccc(F)c(F)c1 | 31% | -3.54 |
| COC(=O)[C@@H]1C[C@H](O)CCN1C(=O)OC(C)(C)C | 33% | -4.21 |
| CN1CCC(N(C)CC(NCC2CCC=CO2)c2ccccc2)CC1 (centres undefined) | -4% | 0.49 |
| CC(C)c1nnc(CN2CCC(C(F)(F)F)(C(F)(F)F)C2)o1 | -6% | 0.57 |
| Cc1ccc(NC(=O)N[C@@H](CC(C)C)C(=O)O)cc1C | -2% | 0.24 |
